Hit rate of the full screen: of about 310,000 compounds, about 14,000 (4.5%) showed an effect of 50% or more. Effects have a minus sign here. The list shows a part of the results.

The text below walks through data of article PMC4336329 (PLoS ONE, 2015).
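Note: peak tail current of the secondary pulse compared with the same well before compound.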

human ether-à-go-go-related gene (hERG) potassium channel, sequence (Q12809 whole entry, looked up): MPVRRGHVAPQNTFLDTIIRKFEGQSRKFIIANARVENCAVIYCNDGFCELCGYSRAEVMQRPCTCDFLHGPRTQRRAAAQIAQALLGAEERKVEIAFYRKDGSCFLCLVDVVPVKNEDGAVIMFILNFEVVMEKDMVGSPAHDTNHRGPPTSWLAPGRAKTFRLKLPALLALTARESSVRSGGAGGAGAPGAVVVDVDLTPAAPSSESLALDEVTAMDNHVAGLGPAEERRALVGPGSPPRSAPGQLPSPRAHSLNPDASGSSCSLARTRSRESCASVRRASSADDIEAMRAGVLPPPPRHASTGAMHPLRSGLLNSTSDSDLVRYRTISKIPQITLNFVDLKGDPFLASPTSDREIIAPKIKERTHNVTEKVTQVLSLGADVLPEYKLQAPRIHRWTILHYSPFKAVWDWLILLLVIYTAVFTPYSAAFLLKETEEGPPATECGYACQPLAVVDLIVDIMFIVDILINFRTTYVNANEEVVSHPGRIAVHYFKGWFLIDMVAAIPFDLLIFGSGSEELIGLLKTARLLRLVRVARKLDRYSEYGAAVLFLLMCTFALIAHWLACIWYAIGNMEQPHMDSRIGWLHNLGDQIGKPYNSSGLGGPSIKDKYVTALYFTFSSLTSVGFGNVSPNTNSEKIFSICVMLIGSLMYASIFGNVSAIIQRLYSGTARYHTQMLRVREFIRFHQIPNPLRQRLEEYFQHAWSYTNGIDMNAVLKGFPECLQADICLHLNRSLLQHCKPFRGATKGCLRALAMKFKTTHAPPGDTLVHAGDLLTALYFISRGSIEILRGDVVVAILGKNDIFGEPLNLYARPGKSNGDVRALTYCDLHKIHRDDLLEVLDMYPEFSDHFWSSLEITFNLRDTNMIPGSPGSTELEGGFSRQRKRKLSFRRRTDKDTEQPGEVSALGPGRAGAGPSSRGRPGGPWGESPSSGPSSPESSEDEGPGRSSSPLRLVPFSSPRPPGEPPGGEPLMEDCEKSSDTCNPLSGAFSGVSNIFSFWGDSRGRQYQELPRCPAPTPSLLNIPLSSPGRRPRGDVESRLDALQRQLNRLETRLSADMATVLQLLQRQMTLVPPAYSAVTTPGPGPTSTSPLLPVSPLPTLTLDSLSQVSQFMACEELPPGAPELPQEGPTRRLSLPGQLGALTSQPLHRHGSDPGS

The test addresses human ether-à-go-go-related gene (hERG) potassium channel (human, UniProt Q12809). Description: primary screen, population patch clamp on CHO cells stably expressing hERG.
For `CCCCCCOC(=O)Nc1ccc(S(=O)(=O)Nc2cccc([N+](=O)[O-])c2)cc1`, the “hERG current change (%, negative = inhibition) at 10uM” value came to 9.26%.
Take `CCCC(=O)Nc1nc2ccc(NC(=O)c3ccccc3F)cc2s1`: the “hERG current change (%, negative = inhibition) at 10uM” value is 6.02%.
Regarding `O=S(=O)(Nc1ccc(S(=O)(=O)N2CCCCC2)cc1)c1ccc(Br)s1`, the “hERG current change (%, negative = inhibition) at 10uM” value is listed as -4.53%.
Turning to `Cc1nc2c(C(=O)NCCC(C)C)c[nH]n2c(=O)c1Cl`, the “hERG current change (%, negative = inhibition) at 10uM” value is listed as 15%.
Regarding `COc1ccc(C)cc1NC(=O)c1cc(S(=O)(=O)N2CCC3(CC2)OCCO3)ccc1F`, the “hERG current change (%, negative = inhibition) at 10uM” value is recorded as -4.43%.
On to `COC(=O)C(O)(CC(=O)Nc1cc(OC)c(OC)c(OC)c1)C(F)(F)F` (stereo not drawn), for which the “hERG current change (%, negative = inhibition) at 10uM” value was 16.8%.
Consider `COc1ccc(N(CC(=O)NC2CCCC2)C(=O)c2ccc(N3CCCCC3)nc2)cc1`, for which the “hERG current change (%, negative = inhibition) at 10uM” value is reported as 3.75%.
Regarding `Cn1c2ccccc2c2cnn(CC(=O)Nc3ccc(Cl)cc3)c(=O)c21`, the “hERG current change (%, negative = inhibition) at 10uM” value was 12.1%.
Under `COCCn1c(C)cc(C(=O)COC(=O)c2ccccc2Br)c1C` stands -38.3%; under `CCCCn1c(N)c(N(CCOC)C(=O)c2cc(-c3ccncc3)nc3ccccc23)c(=O)[nH]c1=O`, 24.2%; under `COc1ccc(Br)cc1S(=O)(=O)Nc1cccc(C)n1.Cl`, 10.1%.
As for `O=C(CN1CCC(O)(c2cccc(C(F)(F)F)c2)CC1)NCCc1ccccc1`, the “hERG current change (%, negative = inhibition) at 10uM” value is given as -15.1%.
Take `CCn1c2ccccc2c2cc(NC(=O)C/C(C)=N/NC(=O)c3ccccc3N)ccc21`: the “hERG current change (%, negative = inhibition) at 10uM” value is listed as 1.86%.
For `CCCCC(=O)Oc1ccccc1C1SCc2cc(C)c(C)cc2CS1`, the “hERG current change (%, negative = inhibition) at 10uM” value is 17.6%.
In the case of `O=c1[nH]c2ccc(N/C(=N/S(=O)(=O)c3ccccc3)c3ccccc3)cc2[nH]1`, the “hERG current change (%, negative = inhibition) at 10uM” value is 22.7%.
Under `COc1cc(S(=O)(=O)N(CCc2ccccc2)Cc2cccs2)ccc1-n1cnnn1` stands -3.57%; under `O=[N+]([O-])c1ccc(NCc2ccc(Cl)cc2)nc1`, 0.977%; under `CCCC(=O)N(c1ccc2oc(C)c(C(C)=O)c2c1)S(=O)(=O)c1ccc(C(=O)O)cc1`, 19.4%.
Under `CCOC(=O)N1CCC(Nc2c(NCCCN3CCN(C4CCCCC4)CC3)c(=O)c2=O)CC1` stands 9.78%; under `Cc1cc(C)c2c(n1)SCC(=O)N2CC(=O)Nc1ccccc1Cl`, 0.318%; under `COC(=O)C(C)N1C(=O)S/C(=C\c2cc(C)n(-c3ccccn3)c2C)C1=O` (stereo not drawn), -17.7%.
Under `COc1cc(NC(=O)c2ccc(-c3csc(C)n3)cc2)c(OC)cc1Cl` stands 17.9%.
`C=CCOc1ccc2nnc(C)n2n1`: the “hERG current change (%, negative = inhibition) at 10uM” value was -7.32%.
Consider `O=C(Nc1cc(Cl)cc(Cl)c1)N1CCCN(Cc2ccccc2)CC1`, for which the “hERG current change (%, negative = inhibition) at 10uM” value is listed as -76.3%.
As for `C/C(=N\NC(=O)c1c[nH]c2ccccc12)c1ccccn1`, the “hERG current change (%, negative = inhibition) at 10uM” value stood at 12.7%.
On to `CCC(C)N(CCNC(=O)CC1Oc2ccccc2NC1=O)C1CCCCC1` (stereo not drawn), for which the “hERG current change (%, negative = inhibition) at 10uM” value is reported as -57.7%.
Consider `COC(=O)/C(=C1/Oc2cc3c(cc2S1)OCO3)C(F)(F)F`, for which the “hERG current change (%, negative = inhibition) at 10uM” value is 10%.
With `COc1ccc(/C=N/n2c(C)nc3sc(C)c(C)c3c2=O)cc1OC`, the “hERG current change (%, negative = inhibition) at 10uM” value stood at 5.04%.
For `Cc1ccc(OCC(=O)Nc2cccc(C)n2)c(C)c1`, the “hERG current change (%, negative = inhibition) at 10uM” value is 15.5%.
Consider `COc1ccc2oc(=O)c(/C(N)=N/NC(=O)c3ccncc3)cc2c1`, for which the “hERG current change (%, negative = inhibition) at 10uM” value is on record as 2.46%.
Under `COc1ccc(NC(=O)c2sc3nc(-c4cccnc4)ccc3c2N)cc1` stands -0.0629%; under `Cc1ccc(COc2ccc(CNCCCN3CCCCCC3=O)cc2)cc1`, -18.6%.
Under `CCCNC(=O)c1ccc2c(=O)c(O)c(-c3ccc(C)cc3)[nH]c2c1` stands -9.57%.
In the case of `COc1cc(/C=C(\C#N)c2nc3ccccc3[nH]2)c([N+](=O)[O-])cc1OCc1ccccc1`, the “hERG current change (%, negative = inhibition) at 10uM” value was 8.16%.
Take `CCOc1ccc(OCC)c(NC(=O)C2CCCN2S(=O)(=O)c2cccc3cccnc23)c1` (stereo not drawn): the “hERG current change (%, negative = inhibition) at 10uM” value is reported as -4.43%.
For `O=C(N/N=C/c1ccccc1C(=O)O)c1cccc(S(=O)(=O)N2CCOCC2)c1`, the “hERG current change (%, negative = inhibition) at 10uM” value is reported as -32.2%.
Consider `O=C(COC(=O)C1CC2CCCC(C1)C2=O)Nc1nc(-c2ccc(F)c(F)c2)cs1` (stereo not drawn), for which the “hERG current change (%, negative = inhibition) at 10uM” value is recorded as -6.64%.
`Cc1cc(C)c2[nH]c(=O)c(CN(Cc3ccco3)C(=O)C3CCCO3)cc2c1` (stereo not drawn): the “hERG current change (%, negative = inhibition) at 10uM” value is -16.5%.
Under `COc1cccc(C(=O)NC2C(=O)N3C(C(=O)O)=C(COC(C)=O)CSC23)c1` (stereo not drawn) stands 8.14%.
Turning to `COc1ccc(CNC(=O)COC(=O)C2=COCCO2)cc1`, the “hERG current change (%, negative = inhibition) at 10uM” value worked out at 4.72%.
On to `Cc1ccc(N(CN2CCCC2=O)C(=O)c2ccc(OC(C)C)cc2)cc1`, for which the “hERG current change (%, negative = inhibition) at 10uM” value is reported as -1.79%.
For the compound `O=C(CSc1ccc(Cl)cc1)N1CCN(c2ccc([N+](=O)[O-])cc2Cl)CC1`, the “hERG current change (%, negative = inhibition) at 10uM” value is on record as -59.2%.
